Measured values reported in PubChem BioAssay AID1347120 (National Center for Advancing Translational Sciences (NCATS), 2019).
Among all 390,000 compounds or so, about 930 (0.24%) were called active. The inconclusive results got no clear call from the source; some entries with a clear call stand among them for comparison. The call rests on the fitted dose curve; in most records, active means well fitted activation curve with a large enough effect; inconclusive means small, poorly fitted or top-dose-only effect; inactive means no such curve, though single readings can be large or run the other way. Potencies beside an inconclusive call are fits to weak or partial responses and may not hold up.

Assay: qHTS for Suppressors of FUS Proteinopathy: Primary screen using FUS-linked yeast assay; further: nearly all actives have a fitted effect of over 55% in size;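 on growth rescue (activation): plate controls were DMSO vehicle for no effect and reference control for full effect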
Settings: S. cerevisiae FUS-expressing, OD600, 24 h; Potency: growth rescue; growth rescue (activation): at 76.6 µM (top of the series)
How it was run: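 Absorbance at 600 nm, taken 24hr after compound addition, measured rescue of FUS-yeast growth at 30C. Induction used 2% galactose with seeding at OD 0.005. Controls: CP55940 from 92uM final, DMSO only.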
Potency means the concentration at half of the fitted maximal effect; tags describe the fitted curve by direction and shape.

Row | Structure (SMILES) | Potency | growth rescue (activation)
1 | Cc1ccc(S(=O)(=O)N2CCN(C(=O)c3cc(S(=O)(=O)N(C)C)ccc3N3CCCC3)CC2)c(C)c1 | inconclusive: 35.5 µM [activator, single point] | 
2 | Cc1ccc(NC2CCCN(C(=O)CCC(=O)c3ccccc3)C2)cc1C (centres undefined) | inconclusive: 50.1 µM [activator, single point] | 
3 | CC(C)C[C@@H](CN1CCCC1CN1C(=S)NC[C@@H]1Cc1ccccc1)N1C[C@H](Cc2ccccc2)N(CC2CCCCC2)C1=S (some centres undefined) | inconclusive: 15.8 µM [activator, partial curve, poor fit] | 
4 | COc1ccccc1N(O)C1CC(=O)N(c2ccc(Br)cc2)C1=O (centres undefined) | inconclusive: 20 µM [activator, partial curve] | 
5 | C[C@H]1CN([C@@H](C)CO)C(=O)c2cccc(NC(=O)Nc3ccc(C(F)(F)F)cc3)c2O[C@@H]1CN(C)S(=O)(=O)c1ccccc1 | inconclusive: 28.2 µM [activator, single point] | 
6 | COCCCN=Cc1c(-c2ccccc2)[nH]n(-c2nc3ccccc3s2)c1=O | inconclusive: 44.7 µM [activator, single point] | 
7 | CCCCc1oc2ccccc2c1C(=O)c1cc(I)c(OCCN(CC)CC)c(I)c1 | inconclusive: 35.5 µM [activator, single point] | 
8 | FC(F)(F)c1ccc(-c2nnc(-c3cccnc3)o2)cc1 |  | inactive: -5.91%
9 | O=C(c1ccccc1F)N1CCC2CC1c1cc(-c3ccc4c(c3)OCO4)ccc12 (centres undefined) | inconclusive: 15.8 µM [activator, partial curve, poor fit] | 
10 | CCOC(=O)[C@]12CCCC=C1N(Cc1cccc3ccccc13)C(=O)[C@H](CC(=O)NCCc1ccccc1OC)C2 | inconclusive: 14.1 µM [activator, partial curve, poor fit] | 
11 | Fc1cccc(Cl)c1CSc1nnc2ccccn12 |  | inactive: 15.3%
12 | COc1ccc(-c2ccc(=O)n(CC(=O)NCCc3ccccc3)n2)cc1 |  | inactive: 2.23%
13 | O=S(=O)(N/N=C1/CC(c2ccccc2)Oc2ccccc21)c1ccc(Br)cc1 (centres undefined) | inconclusive: 17.8 µM [activator, partial curve, poor fit] | 
14 | COc1ccc(N(C(=O)c2cccnc2)S(=O)(=O)c2ccc(OC)c(OC)c2)cc1 | inconclusive: 22.4 µM [activator, partial curve] | 
15 | CCC(=O)N1CCc2cc(Br)c(S(=O)(=O)NCCCN(CC)Cc3ccccc3)cc21 |  | inactive: -7.55%
16 | CC(C)C[C@@H](C)C(=O)N(Cc1ccccc1)c1ccccc1 |  | inactive: -21.8%
17 | CC(C)C[C@@H](COCc1ccc(Cl)cc1)N1CCN(C(=O)c2ccc(C(F)(F)F)cc2)CCC1=O | inconclusive: 39.8 µM [activator, partial curve, poor fit] | 
18 | CC(=O)Nc1cccc(NC(=O)CSc2cn(CC(=O)N3CCCCCC3)c3ccccc23)c1 |  | inactive: 40.9%
19 | COCCn1c(C)cc(/C=C2/NC(=O)N(c3cccc(Cl)c3)C2=O)c1C | inconclusive: 31.6 µM [activator, single point] | 
20 | O=C(CN1CCOCC1)Nc1ccccc1NC(=O)C1CCN(c2ncccn2)CC1 |  | inactive: 11.3%
21 | Cc1ccc(Nc2c(-c3ccc(N4CCOCC4)cc3)nc3cnccn23)cc1 | inconclusive: 50.1 µM [activator, partial curve, poor fit] | 
22 | CC(C)(C)OC(=O)COc1cc(OCC(=O)OC(C)(C)C)c2c(=O)cc(-c3ccccc3)oc2c1 | active: 31.6 µM | 

Row | Structure (SMILES) | Potency | growth rescue (activation)
23 | CCN(C[C@H]1[C@@H](c2ccc(C3=CCCC3)cc2)[C@H](CO)N1C(=O)c1cccnc1)S(=O)(=O)c1ccccc1[N+](=O)[O-] | inconclusive: 35.5 µM [activator, single point] | 
24 | Cc1ccc(-c2cc(C(=O)NN=Cc3cccc(Oc4ccccc4)c3)[nH]n2)cc1C | inconclusive: 20 µM [activator, single point] | 
25 | CCCCCCSc1cccc(-c2nc3ccccn3c2NCc2ccccc2)c1 | inconclusive: 20 µM [activator, single point] | 
26 | CC(C)(C)[C@H]1COC(=O)[C@@H](NC(=O)OCC2c3ccccc3-c3ccccc32)C/C=C\C[C@@H](CC(=O)N[C@@H](CO)Cc2ccccc2)C(=O)N1 | inconclusive: 50.1 µM [activator, single point] | 
27 | CN(CC(=O)NCc1ccccc1Cl)S(=O)(=O)c1ccc2c(c1)c(=O)n(C)c(=O)n2C |  | inactive: -27.3%
28 | Cc1ccccc1-n1c(SCC(=O)c2cc(C)n(C)c2C)nnc1-c1ccncc1 | inconclusive: 35.5 µM [activator, single point] | 
29 | Cc1sc2ncn(CC(=O)N3CCN(c4ccccc4F)CC3)c(=O)c2c1S(=O)(=O)N1CCN(c2ncccn2)CC1 |  | inactive: 9.86%
30 | CCOC(=O)CCCCC(=O)c1[nH]c(=O)[nH]c1CSCCO |  | inactive: 8.66%
31 | O=[N+]([O-])c1ccc(O)c(/C=N/Nc2ccccn2)c1 |  | inactive: -4.84%
32 | Cc1ccc([C@H]2C[C@H](O)[C@@H](n3cc(-c4ccc(F)cc4)nn3)CN2C(=O)C2CCCCC2)cc1 | inconclusive: 50.1 µM [activator, single point] | 
33 | COc1ccc(OCC(=O)N/N=C/c2cccn2-c2cccc(C(=O)O)c2)cc1 | inconclusive: 28.2 µM [activator, single point] | 
34 | CCOC(=O)[C@]12CCC=C1N(Cc1ccc(Cl)cc1Cl)C(=O)[C@H](CC(=O)NCc1ccc(C)o1)C2 | inconclusive: 31.6 µM [activator, single point] | 
35 | Cc1cc(F)ccc1NC(=O)C(C(C)C)N1Cc2ccccc2C1=O (centres undefined) |  | inactive: 11.1%
36 | CC[C@]12c3[nH]c4ccc(Cl)cc4c3CCN1C(=O)[C@@H](CC(=O)NC/C=C(\C)CCC=C(C)C)C[C@@H]2C(=O)N1CCN(C(=O)C2CC2)CC1 | inconclusive: 25.1 µM [activator, single point] | 
37 | CC(=O)c1c(C)nc(Nc2nc(C)c3cc(C)ccc3n2)nc1C | inconclusive: 11.2 µM [activator, single point] | 
38 | COc1cc2[nH]c(=S)nc(NCCc3ccc(S(N)(=O)=O)cc3)c2cc1OC |  | inactive: -5.11%
39 | COc1ccc(C(=O)N2CC(=O)Nc3ccc(C)cc3C2c2ccc(F)cc2)c(OC)c1 (centres undefined) |  | inactive: 17.5%
40 | O=C(Nc1ccc(S(=O)(=O)NC2=NCCCCC2)cc1)c1ccc(C(F)(F)F)cc1 | inconclusive: 31.6 µM [activator, single point] | 
41 | COC(=O)c1ccc(NC(=O)CCn2cccn2)cc1 |  | inactive: -16.6%
42 | S=C(NC1CCCCC1)N1CCOCCOCCN(C(=S)NC2CCCCC2)CCOCCOCC1 | inconclusive: 50.1 µM [activator, partial curve, poor fit] | 
43 | CCCCC1=CC2=C(c3ccco3)C(=O)C(C)(OC(=O)c3ccc(OC)cc3)C(=O)C2=CN1CCCOC(C)C (centres undefined) | inconclusive: 35.5 µM [activator, single point] | 
44 | CCN(CC(=O)NCc1ccc(F)cc1)C(=O)C1CCN(S(=O)(=O)c2ccc(C(C)C)cc2)CC1 | inconclusive: 39.8 µM [activator, partial curve, poor fit] | 

Row | Structure (SMILES) | Potency | growth rescue (activation)
45 | CC(Oc1ccc(Cl)cc1Cl)C(=O)NCCC1=CCCCC1 (centres undefined) | inconclusive: 28.2 µM [activator, partial curve] | 
46 | CCCOc1ccc(C2C(=O)N(C3CCCCCC3)CC(=O)N2Cc2ccc(OC)cc2)cc1OC (centres undefined) | inconclusive: 25.1 µM [activator, partial curve] | 
47 | COC(=O)Nc1c(-c2ccccc2)nc2ccccn12 |  | inactive: 20%
48 | Cc1ccnc(NS(=O)(=O)c2ccc(NC(=O)C34CC5CC(C)(CC(C)(C5)C3)C4)cc2)n1 | inconclusive: 39.8 µM [activator, single point] | 
49 | COc1ccc2c(c1)C(C)CC(C)(C)N2C(=O)CSc1ncn[nH]1 (centres undefined) |  | inactive: -0.258%
50 | COc1ccc(/C=C/C(=O)c2c(O)cc(C)oc2=O)c(OC)c1 | inconclusive: 31.6 µM [activator, partial curve, poor fit] | 
51 | Nc1nc(Nc2ccccc2)nc(NCc2ccccc2)c1[N+](=O)[O-] |  | inactive: 17.2%
52 | CCOc1ccccc1C(=O)N1CCN(c2ccc(C(F)(F)F)cn2)CC1 | inconclusive: 50.1 µM [activator, single point] | 
53 | Cc1ccc2c(C)c(C(=O)N3CCC(c4nc5ccccc5s4)CC3)oc2c1C | inconclusive: 44.7 µM [activator, single point] | 
54 | Cc1ccc(CNC(=O)c2sc3ncnc(N(C)C4CCCCC4)c3c2C)cc1 |  | inactive: 18.5%
55 | COc1ccccc1NC(=O)N(CCN1CCCC1)Cc1cc2cc(C)ccc2[nH]c1=O |  | inactive: 19.8%
56 | COc1ccc(NC(=O)N2CCCc3ccccc32)cc1 |  | inactive: -2.29%
57 | Cc1cc(C(=O)N/N=C2\CC(=O)c3ccccc32)c(C)n1-c1ccccc1 | inconclusive: 35.5 µM [activator, single point] | 
58 | Cc1ccccc1NC(=O)c1sc2nc3c(c(-c4ccco4)c2c1N)CCC3 |  | inactive: 22%
59 | O=[N+]([O-])c1ccc(C=CC=Cc2ccccc2)cc1 |  | inactive: -27.4%
60 | O=C1C(=O)N(Cc2ccc(-c3ccc(Cl)nc3)cc2)c2ccc(OC(F)(F)F)cc21 |  | inactive: -6.25%
61 | COc1cc2c(cc1OC)C(COc1cc(C)cc(C)c1)N(C(=O)c1ccc(S(=O)(=O)N3CCCC3)cc1)CC2 (centres undefined) | inconclusive: 50.1 µM [activator, single point] | 
62 | COc1ccc2oc(=O)c(C(=O)Nc3cccc(C(C)=O)c3)cc2c1 |  | inactive: -17.8%
63 | O=C(CSc1ncn[nH]1)N1N=C2/C(=C/c3ccccc3)CCCC2C1c1ccccc1 (centres undefined) | inconclusive: 44.7 µM [activator, single point] | 
64 | COc1ccc(-c2nc(C)c(CCNC(=O)c3ccco3)s2)cc1 |  | inactive: -2.38%
